# Measured values reported in the supplement of paper PMC8728848.
# The other results are listed elsewhere or left out.
# B1: XL-35 (Xenopus laevis) (protein)
# chain: MLVHILLLLVTGGLSQSCDPVVIVASKNMVKQLDCDKFRNCKEIKDSNEEAQDGIYTLTSPDGISYQTFCDMTTNGGGWTLVASVHENNMAGKCTIGDRWSSQQGNRADYPEGDGNWANYNTFGSAGGATSDDYKNPGYYDIEAYNLGVWHVPNKTPLSVWRNSSLQRYRTTDGILFKHGGNLFSLYRIYPVKYGIGSCSKDSGPTVPVVYDLGSANLTASFYSPGFRSQFTPGYIQFRPINTEKAALALCPGMKMESCNVEHVCIGGGGYFPEADPRQCGDFAAYDFNGYGTKKFNSAGIEITEAAVLLFYL
# Tests used:
# Assay in all cases: glycan array binding signal (z-score within array); higher = stronger binding
# Settings in all cases: glycan notation: IUPAC condensed, linker removed
# [1] = target: Man(a1-3)[Man(a1-6)]Man(a1-6)[Man(a1-2)Man(a1-3)]Man(b1-4)GlcNAc(b1-4)GlcNAc
# Procedure, shortened: (§1)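 Columns mapping to the same glycan were averaged after glycan names were converted to IUPAC-condensed notation. The data come from 3228 arrays in the Consortium for Functional Glycomics database, limited to those with an available protein sequence. Binding is reported as a within-array Z-score averaged across arrays of one protein sequence and across linkers.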
# [2] = target: Man(a1-3)[Man(a1-6)]Man(a1-6)[Man(a1-3)]Man
# Procedure, shortened: as §1
# [3] = target: Man(a1-3)[Man(a1-6)]Man(a1-6)[Man(a1-3)]Man(b1-4)GlcNAc(b1-4)GlcNAc
# Procedure, shortened: as §1
# [4] = target: Man(a1-3)[Man(a1-6)]Man(b1-4)GlcNAc(b1-4)GlcNAc
# Procedure, shortened: as §1
# [5] = target: Man(a1-3)[Man(a1-6)]Man(b1-4)GlcNAc(b1-4)[Fuc(a1-6)]GlcNAc
# Procedure, shortened: as §1
# Man(a1-6)Man = target: Man(a1-6)Man
# Procedure, shortened: as §1
# Man(b1-4)GlcNAc = target: Man(b1-4)GlcNAc
# Procedure, shortened: as §1
# MurNAc(b1-4)GlcNAc = target: MurNAc(b1-4)GlcNAc
# Procedure, shortened: as §1
# Neu5Ac(a2-3)Gal = target: Neu5Ac(a2-3)Gal
# Procedure, shortened: as §1
# [6] = target: Neu5Ac(a2-3)Gal(b1-3)GalNAc
# Procedure, shortened: as §1
# [7] = target: Neu5Ac(a2-3)Gal(b1-3)GalNAc(b1-3)Gal(a1-4)Gal(b1-4)Glc
# Procedure, shortened: as §1
# [8] = target: Neu5Ac(a2-3)Gal(b1-3)GalNAc(b1-4)[Neu5Ac(a2-3)]Gal(b1-4)Glc
# Procedure, shortened: as §1
# [9] = target: Neu5Ac(a2-3)Gal(b1-3)GalNAc(b1-4)[Neu5Ac(a2-8)Neu5Ac(a2-3)]Gal(b1-4)Glc
# Procedure, shortened: as §1
# [10] = target: Neu5Ac(a2-3)Gal(b1-3)GalNAc6S
# Procedure, shortened: as §1
# [11] = target: Neu5Ac(a2-3)Gal(b1-3)GlcNAc
# Procedure, shortened: as §1
# [12] = target: Neu5Ac(a2-3)Gal(b1-3)GlcNAc(b1-2)Man
# Procedure, shortened: as §1
# [13] = target: Neu5Ac(a2-3)Gal(b1-3)GlcNAc(b1-2)Man(a1-3)[GlcNAc(b1-4)][Neu5Ac(a2-3)Gal(b1-3)GlcNAc(b1-2)Man(a1-6)]Man(b1-4)GlcNAc(b1-4)GlcNAc
# Procedure, shortened: as §1
# [14] = target: Neu5Ac(a2-3)Gal(b1-3)GlcNAc(b1-2)Man(a1-3)[Neu5Ac(a2-3)Gal(b1-3)GlcNAc(b1-2)Man(a1-6)]Man(b1-4)GlcNAc(b1-4)GlcNAc
# Procedure, shortened: as §1
# [15] = target: Neu5Ac(a2-3)Gal(b1-3)GlcNAc(b1-3)Gal(b1-3)GlcNAc
# Procedure, shortened: as §1
# [16] = target: Neu5Ac(a2-3)Gal(b1-3)GlcNAc(b1-3)Gal(b1-4)GlcNAc
# Procedure, shortened: as §1
# [17] = target: Neu5Ac(a2-3)Gal(b1-3)GlcNAc(b1-3)GalNAc
# Procedure, shortened: as §1
# [18] = target: Neu5Ac(a2-3)Gal(b1-3)GlcNAc(b1-4)Gal(b1-4)Glc
# Procedure, shortened: as §1
# [19] = target: Neu5Ac(a2-3)Gal(b1-3)GlcNAc(b1-6)GalNAc
# Procedure, shortened: as §1
# [20] = target: Neu5Ac(a2-3)Gal(b1-3)GlcNAc6S
# Procedure, shortened: as §1
# [21] = target: Neu5Ac(a2-3)Gal(b1-3)[Fuc(a1-4)]GlcNAc
# Procedure, shortened: as §1
# [22] = target: Neu5Ac(a2-3)Gal(b1-3)[Fuc(a1-4)]GlcNAc(b1-3)Gal(b1-3)[Fuc(a1-4)]GlcNAc
# Procedure, shortened: as §1
# [23] = target: Neu5Ac(a2-3)Gal(b1-3)[Fuc(a1-4)]GlcNAc(b1-3)Gal(b1-4)[Fuc(a1-3)]GlcNAc
# Procedure, shortened: as §1
# [24] = target: Neu5Ac(a2-3)Gal(b1-3)[GlcNAc(b1-6)]GalNAc
# Procedure, shortened: as §1
# [25] = target: Neu5Ac(a2-3)Gal(b1-3)[Neu5Ac(a2-3)Gal(b1-4)]GlcNAc
# Procedure, shortened: as §1
# [26] = target: Neu5Ac(a2-3)Gal(b1-3)[Neu5Ac(a2-6)]GalNAc
# Procedure, shortened: as §1
# [27] = target: Neu5Ac(a2-3)Gal(b1-3)[Neu5Ac(a2-6)]GlcNAc(b1-3)[Fuc(a1-3)[Gal(b1-4)]GlcNAc(b1-6)]Gal(b1-4)Glc
# Procedure, shortened: as §1
# [28] = target: Neu5Ac(a2-3)Gal(b1-3)]Neu5Ac(a2-3)Gal(b1-4)]GlcNAc
# Procedure, shortened: as §1
# Neu5Ac(a2-3)Gal(b1-4)Glc = target: Neu5Ac(a2-3)Gal(b1-4)Glc
# Procedure, shortened: as §1
# [29] = target: Neu5Ac(a2-3)Gal(b1-4)GlcNAc
# Procedure, shortened: as §1
# [30] = target: Neu5Ac(a2-3)Gal(b1-4)GlcNAc(b1-2)Man
# Procedure, shortened: as §1
# [31] = target: Neu5Ac(a2-3)Gal(b1-4)GlcNAc(b1-2)Man(a1-3)[GlcNAc(b1-4)][Neu5Ac(a2-3)Gal(b1-4)GlcNAc(b1-2)Man(a1-6)]Man(b1-4)GlcNAc(b1-4)GlcNAc
# Procedure, shortened: as §1
# [32] = target: Neu5Ac(a2-3)Gal(b1-4)GlcNAc(b1-2)Man(a1-3)[Neu5Ac(a2-3)Gal(b1-4)GlcNAc(b1-2)Man(a1-6)]Man(b1-4)GlcNAc(b1-4)GlcNAc
# Procedure, shortened: as §1
# [33] = target: Neu5Ac(a2-3)Gal(b1-4)GlcNAc(b1-2)Man(a1-3)[Neu5Ac(a2-3)Gal(b1-4)GlcNAc(b1-2)Man(a1-6)]Man(b1-4)GlcNAc(b1-4)[Fuc(a1-6)]GlcNAc
# Procedure, shortened: as §1
binder,measurement,setting,value
B1,glycan array binding signal (z-score),[1],-0.384
same,glycan array binding signal (z-score),[2],-0.458
same,glycan array binding signal (z-score),[3],0.065
same,glycan array binding signal (z-score),[4],-0.061
same,glycan array binding signal (z-score),[5],-0.239
same,glycan array binding signal (z-score),Man(a1-6)Man,-0.215
same,glycan array binding signal (z-score),Man(b1-4)GlcNAc,0.018
same,glycan array binding signal (z-score),MurNAc(b1-4)GlcNAc,0.061
same,glycan array binding signal (z-score),Neu5Ac(a2-3)Gal,-0.17
same,glycan array binding signal (z-score),[6],-0.265
same,glycan array binding signal (z-score),[7],0.104
same,glycan array binding signal (z-score),[8],-0.105
same,glycan array binding signal (z-score),[9],0.436
same,glycan array binding signal (z-score),[10],-0.097
same,glycan array binding signal (z-score),[11],-0.015
same,glycan array binding signal (z-score),[12],-0.032
same,glycan array binding signal (z-score),[13],-0.234
same,glycan array binding signal (z-score),[14],-0.181
same,glycan array binding signal (z-score),[15],0.073
same,glycan array binding signal (z-score),[16],-0.233
same,glycan array binding signal (z-score),[17],-0.379
same,glycan array binding signal (z-score),[18],-0.437
same,glycan array binding signal (z-score),[19],-0.059
same,glycan array binding signal (z-score),[20],-0.218
same,glycan array binding signal (z-score),[21],-0.204
same,glycan array binding signal (z-score),[22],0.579
same,glycan array binding signal (z-score),[23],-0.001
same,glycan array binding signal (z-score),[24],-0.313
same,glycan array binding signal (z-score),[25],-0.101
same,glycan array binding signal (z-score),[26],-0.335
same,glycan array binding signal (z-score),[27],-0.257
same,glycan array binding signal (z-score),[28],-0.341
same,glycan array binding signal (z-score),Neu5Ac(a2-3)Gal(b1-4)Glc,-0.168
same,glycan array binding signal (z-score),[29],-0.051
same,glycan array binding signal (z-score),[30],0.501
same,glycan array binding signal (z-score),[31],-0.603
same,glycan array binding signal (z-score),[32],-0.022
same,glycan array binding signal (z-score),[33],-0.075
